# Laboratory results: the supplement of paper PMC3334620
# In all, about 33,000 sequences were measured (“E-score (-0.5 to 0.5)”: median about -0.035, highest 2% from about 0.35 on). The list shows a part of the results.
# Target: T1, Pdr3 (UniProt P33200)
# T1 sequence: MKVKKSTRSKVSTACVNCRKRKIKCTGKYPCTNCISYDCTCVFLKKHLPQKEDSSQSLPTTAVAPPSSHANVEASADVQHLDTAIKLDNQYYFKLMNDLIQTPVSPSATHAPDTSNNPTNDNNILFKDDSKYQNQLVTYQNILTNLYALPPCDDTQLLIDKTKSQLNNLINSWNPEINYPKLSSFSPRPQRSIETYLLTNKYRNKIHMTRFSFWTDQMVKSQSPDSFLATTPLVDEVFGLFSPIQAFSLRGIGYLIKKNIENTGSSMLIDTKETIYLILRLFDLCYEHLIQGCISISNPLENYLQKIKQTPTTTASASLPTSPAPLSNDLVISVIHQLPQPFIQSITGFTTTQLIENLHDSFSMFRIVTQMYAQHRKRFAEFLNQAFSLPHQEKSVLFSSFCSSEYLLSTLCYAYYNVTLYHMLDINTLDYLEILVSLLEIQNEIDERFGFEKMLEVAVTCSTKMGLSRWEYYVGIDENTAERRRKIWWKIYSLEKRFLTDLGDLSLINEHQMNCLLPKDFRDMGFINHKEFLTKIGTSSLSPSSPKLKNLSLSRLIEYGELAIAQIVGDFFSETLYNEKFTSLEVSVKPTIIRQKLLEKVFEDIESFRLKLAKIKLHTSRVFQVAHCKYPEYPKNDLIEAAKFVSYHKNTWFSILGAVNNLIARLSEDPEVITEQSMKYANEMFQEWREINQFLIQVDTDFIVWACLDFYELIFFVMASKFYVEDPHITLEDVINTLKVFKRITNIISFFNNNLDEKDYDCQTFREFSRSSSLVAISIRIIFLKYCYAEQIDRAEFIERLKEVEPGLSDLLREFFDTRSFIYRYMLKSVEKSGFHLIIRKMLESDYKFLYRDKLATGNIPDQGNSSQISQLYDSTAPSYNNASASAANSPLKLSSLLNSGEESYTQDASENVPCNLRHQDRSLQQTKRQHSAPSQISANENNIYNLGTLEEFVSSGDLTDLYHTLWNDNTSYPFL
# Assay: PBM E-score (8-mer binding enrichment) (E-score (-0.5 to 0.5)); higher = stronger / more preferred TF binding; most listed sequences are background and not binding sites
# Details: protein concentration: 200 nM; construct: GST-full length
# Summary of the method: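 PURExpress in vitro transcription/translation supplied GST-tagged yeast transcription factors, either full-length or DNA-binding domain. Applied at about 100-200 nM to universal all-10-mer Agilent arrays double-stranded by primer extension, the bound protein was detected with fluorescent anti-GST. E-scores, modified Wilcoxon-Mann-Whitney statistics, were given by the Universal PBM Analysis Suite to ungapped eight-base words pooled with their reverse complements after masliner normalisation.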
row,Sequence,PBM E-score
1,ACCCATTG,0.0537
2,ACGTTGCC,-0.0541
3,ATCCGTCG,0.313
4,TAATCCCA,-0.218
5,GATTGGAC,-0.0483
6,CGCCTCAG,0.0503
7,ATTTGATC,0.106
8,AATACCCC,0.188
9,CCTAGAAC,-0.0606
10,CCTATCTA,-0.226
11,ATGGAATA,0.205
12,AAAACCAG,-0.0562
13,TACCTAAA,-0.145
14,GGGCGGAC,0.373
15,CTGTGCGC,0.2
16,GTTGAAAC,0.0372
17,TGGCACAA,-0.108
18,ATAACTGA,0.00191
19,CTTCACAC,-0.201
20,AGGTTCAA,-0.0082
21,ATAGTAGG,-0.0379
22,TCGTGGAA,0.175
23,AAGAAGCC,0.226
24,CGAGATTA,0.157
25,GAGTAATA,0.157

row,Sequence,PBM E-score
1,ACATTACT,-0.135
2,AGACTCTC,-0.201
3,CCATTAAC,0.0654
4,AGATGCGA,0.0515
5,CTCCGGGA,0.399
6,CCAAGAGA,-0.18
7,AGTTGAAA,-0.0974
8,CGTTTTGA,-0.058
9,CCGACAAG,0.184
10,CCCTCTCC,-0.208
11,ATATGTGA,-0.153
12,CCAGTGGA,-0.00745
13,CATCTGCG,-0.0174
14,CAAATGAC,-0.232
15,AATAGCAC,-0.095
16,GCGTAGTA,-0.095
17,AACTCAAC,0.0661
18,GCCAGGCC,0.0597
19,GTCATCAA,-0.0443
20,ATGGGATG,-0.0223
21,ACCTAAGG,-0.205
22,ATTTTCGC,0.0337
23,CTGGCACA,-0.324
24,CACGTTGA,-0.125
25,GGTTCGGA,0.34

row,Sequence,PBM E-score
1,AGCAAACG,-0.0291
2,ATGAGCGA,0.0929
3,ATTTAACC,-0.00537
4,GTTTAGCA,-0.0375
5,TCTACAGA,-0.149
6,AAGCGAGA,-0.133
7,ACCTCGGA,0.357
8,GCGGCACA,0.168
9,GACCCGGC,0.294
10,AGCATCAA,0.0103
11,ACGTCCGG,0.227
12,AGTTAGGC,-0.279
13,AACGTCAT,-0.115
14,GTCCAACA,-0.0539
15,CTTATGGC,-0.136
16,AAGACCGT,-0.0797
17,TAACTCCA,-0.178
18,GCGCCTCC,0.0241
19,CTAGCCGA,0.152
20,AGTCCCGA,0.147
21,CTCGCTGC,0.00281
22,GGGCTTTA,-0.219
23,CACTTGTC,0.0711
24,ACGCTGAA,-0.0254
25,CGAACCCC,0.0316

row,Sequence,PBM E-score
1,ATGTTGTC,0.0575
2,AGGTGCGC,-0.179
3,CACGACAC,0.0814
4,CCACAAGA,-0.053
5,CCGGCGGC,0.325
6,ATAGCATG,-0.189
7,GGATAAAA,0.132
8,AGACACAC,-0.112
9,TAGACCGA,-0.0359
10,CCTCATTC,0.00413
11,GCCTAATA,-0.107
12,ATGCGTCA,-0.119
13,ATCGTATG,-0.171
14,CTATAAAA,-0.111
15,CCAACGAA,-0.00854
16,CTGAACCC,0.0316
17,GCGACAAC,0.043
18,AAGTAACC,-0.115
19,GTACTCCA,-0.0975
20,GAATTCTA,0.0439
21,GAAGTTCC,0.195
22,CGAGGAGC,0.026
23,GCAACTAC,-0.0493
24,CACGGGCC,0.196
25,CACGACTA,-0.231

row,Sequence,PBM E-score
1,GCTAGCCA,-0.164
2,GTTACCGA,0.106
3,CTCTATGC,-0.0609
4,TAGAACAA,-0.223
5,AACAACTA,0.0903
6,TCCAGCGA,-0.0535
7,AGTGGACA,0.00824
8,CGGGATAA,0.408
9,AGTTCAGG,-0.23
10,CACTAGAA,-0.117
11,CGAATTTC,0.105
12,CACCTCCG,0.278
13,ATCTAGCG,-0.0513
14,CCTTTGGC,-0.196
15,CGCGTATA,-0.0408
16,CGGATTAA,0.242
17,GTCCGAAC,0.264
18,AGGGGCAC,-0.293
19,CACAAACG,0.18
20,CCGTGGAC,0.274
21,CTACTCTC,-0.0411
22,CCATCGCA,-0.136
23,GGCCTATA,-0.119
24,AATTTTAG,-0.194
25,AGTGCGGC,0.131

row,Sequence,PBM E-score
1,ATACGCTC,0.0154
2,ACGAGCAC,-0.0466
3,ACCTTCAA,-0.254
4,CCATCTCA,-0.0788
5,CAAGTCGC,-0.139
6,AGAAATTG,0.0295
7,CACCGTAG,-0.14
8,ACTCCTAT,-0.186
9,CGCCCGCG,0.314
10,CGGGTACA,0.113
11,CGTTGGTC,-0.0933
12,CCTTTCGC,-0.0377
13,CTAATACA,-0.107
14,AAATAACA,0.0634
15,GCACACGC,-0.133
16,CCAGAAGC,-0.0512
17,TAATCTAA,-0.121
18,GATACGGC,0.014
19,AGTGGGAT,0.0527
20,CCTTCCCA,-0.0891
21,AAGACCCA,0.0318
22,GTATCATA,0.135
23,ACGTCAGA,-0.245
24,CGGTGAAG,-0.194
25,AAGCCTTC,-0.113

row,Sequence,PBM E-score
1,CTGGACTC,-0.177
2,GCCAAGCA,-0.259
3,ATAGCCCC,-0.0994
4,CCATCAAA,-0.138
5,CAGATCAA,-0.117
6,ATTCCCTC,0.0857
7,AAGCGGGT,0.0837
8,CCTTAAGA,-0.315
9,GAACAGAA,-0.00888
10,GTAAAGTA,-0.1
11,CAAGTGTC,-0.197
12,AACCAGAG,-0.12
13,CCAATGTA,-0.147
14,GCACGACC,-0.0364
15,AGTTGGAT,-0.0658
16,CGACATAC,0.0342
17,GCAGGATA,-0.0657
18,AGTTACAC,-0.0568
19,GACGGCAC,0.0758
20,ATATAGAG,-0.0836
21,ACCTCCTA,-0.192
22,CAGAATCG,0.0989
